Experimental data published in the supplement of paper PMC6531468.
The list shows a part of the results. Values come from read counts of a selection and are noisy. Each score is taken over the longer molecules that contain the sequence shown.

What was measured:
Test in all cases: 6-mer SELEX enrichment z-score vs GST control; IMP3 is the RNA-binding protein IGF2BP3; higher = more enriched by binding
[1] = tested on: IMP3 KH1-4; conditions: construct: KH1-4 (164-579); SELEX round: R4
Method: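 SELEX-seq with GST-tagged IMP3 KH1-4 (Pro164-Lys579) and an N40 RNA pool, round 4. 6-mer z-score of sequence-tag enrichment normalised to the corresponding GST SELEX round; RNA k-mers written as DNA (T for U).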

[2] = tested on: IMP3 RRM1-2; conditions: construct: RRM1-2 (1-163); SELEX round: R2
Sequence of IMP3 RRM1-2 (chain, as listed by the source): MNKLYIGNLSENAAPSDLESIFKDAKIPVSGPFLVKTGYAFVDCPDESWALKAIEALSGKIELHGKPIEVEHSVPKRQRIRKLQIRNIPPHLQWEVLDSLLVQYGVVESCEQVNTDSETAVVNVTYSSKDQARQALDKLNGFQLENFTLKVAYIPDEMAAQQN
Method: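 SELEX-seq with GST-tagged IMP3 RRM1-2 (Met1-Asn163) and an N40 RNA pool, round 2. 6-mer enrichment z-score normalised to GST SELEX. RNA written as DNA (T = U).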

[3] = target: IMP3 full-length (UniProt O00425); conditions: construct: FL IMP3 (1-579); SELEX round: R4
Sequence of UniProt O00425 (O00425 whole entry): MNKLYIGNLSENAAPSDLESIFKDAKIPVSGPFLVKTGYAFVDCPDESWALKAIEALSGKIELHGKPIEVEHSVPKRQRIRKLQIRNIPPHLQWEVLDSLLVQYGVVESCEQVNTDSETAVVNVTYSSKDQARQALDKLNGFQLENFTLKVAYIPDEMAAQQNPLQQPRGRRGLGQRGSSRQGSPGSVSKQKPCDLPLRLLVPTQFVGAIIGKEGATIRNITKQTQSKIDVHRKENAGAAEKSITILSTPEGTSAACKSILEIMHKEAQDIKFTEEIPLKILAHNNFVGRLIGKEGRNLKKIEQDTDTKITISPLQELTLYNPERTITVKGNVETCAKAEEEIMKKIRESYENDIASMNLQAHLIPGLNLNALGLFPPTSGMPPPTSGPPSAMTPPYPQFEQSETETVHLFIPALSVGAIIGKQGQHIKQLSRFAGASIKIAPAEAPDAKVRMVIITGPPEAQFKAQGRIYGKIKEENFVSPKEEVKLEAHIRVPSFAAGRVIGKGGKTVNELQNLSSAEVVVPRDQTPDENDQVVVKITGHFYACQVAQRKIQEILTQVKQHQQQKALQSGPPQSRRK
Method: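 SELEX-seq with GST-tagged full-length IMP3 and an N40 RNA pool, round 4. Each 6-mer is scored as an enrichment z-score of sequence tags containing it, normalised to the matching GST SELEX round. RNA written as DNA (T = U).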

[4] = tested on: IMP3 KH1-2; conditions: construct: KH1-2 (164-376); SELEX round: R4
Sequence of IMP3 KH1-2 (chain, as listed by the source): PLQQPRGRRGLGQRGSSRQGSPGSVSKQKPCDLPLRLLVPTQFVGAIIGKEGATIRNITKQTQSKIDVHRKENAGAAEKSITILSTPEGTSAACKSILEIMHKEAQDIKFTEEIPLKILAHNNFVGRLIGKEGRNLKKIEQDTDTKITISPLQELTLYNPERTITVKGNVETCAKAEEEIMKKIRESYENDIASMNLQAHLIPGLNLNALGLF
Method: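 SELEX-seq with GST-tagged IMP3 KH1-2 (Pro164-Phe376) and an N40 RNA pool, round 4 (stringent 300/600 mM KCl washes). 6-mer z-score of sequence-tag enrichment normalised to the corresponding GST SELEX round; RNA k-mers written as DNA (T for U).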

[5] = tested on: IMP3 KH3-4; conditions: construct: KH3-4 (377-579); SELEX round: R4
Sequence of IMP3 KH3-4 (chain, as listed by the source): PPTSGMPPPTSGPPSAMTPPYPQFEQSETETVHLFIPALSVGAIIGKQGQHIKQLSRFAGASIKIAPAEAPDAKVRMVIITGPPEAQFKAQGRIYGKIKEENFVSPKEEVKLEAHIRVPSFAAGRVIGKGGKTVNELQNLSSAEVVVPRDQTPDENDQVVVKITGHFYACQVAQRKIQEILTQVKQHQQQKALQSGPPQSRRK
Method: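 SELEX-seq with GST-tagged IMP3 KH3-4 (Pro377-Lys579) and an N40 RNA pool, round 4. 6-mer z-score of sequence-tag enrichment normalised to the corresponding GST SELEX round; RNA k-mers written as DNA (T for U).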

Sequence of IMP3 KH1-4 (chain, as listed by the source): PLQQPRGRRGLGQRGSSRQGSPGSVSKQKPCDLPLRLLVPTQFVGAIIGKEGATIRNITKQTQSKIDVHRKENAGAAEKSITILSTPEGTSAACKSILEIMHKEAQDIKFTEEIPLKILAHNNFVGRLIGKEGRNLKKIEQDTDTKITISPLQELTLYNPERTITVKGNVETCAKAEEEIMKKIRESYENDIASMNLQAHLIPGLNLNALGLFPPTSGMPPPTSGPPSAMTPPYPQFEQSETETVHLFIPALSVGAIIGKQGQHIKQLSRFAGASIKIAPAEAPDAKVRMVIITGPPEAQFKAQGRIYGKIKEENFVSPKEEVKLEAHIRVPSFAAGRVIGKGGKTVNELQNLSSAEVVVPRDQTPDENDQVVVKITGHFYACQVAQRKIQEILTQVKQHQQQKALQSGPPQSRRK

CAGTCT
6-mer SELEX enrichment z-score [1]: -0.003 | 6-mer SELEX enrichment z-score [2]: 0.578 | 6-mer SELEX enrichment z-score [3]: 0.509 | 6-mer SELEX enrichment z-score [4]: -0.022 | 6-mer SELEX enrichment z-score [5]: -0.113

GACTGG
6-mer SELEX enrichment z-score [1]: -0.035 | 6-mer SELEX enrichment z-score [2]: -0.319 | 6-mer SELEX enrichment z-score [3]: -0.143 | 6-mer SELEX enrichment z-score [4]: -0.058 | 6-mer SELEX enrichment z-score [5]: -0.119

TTCGGA
6-mer SELEX enrichment z-score [1]: 0.032 | 6-mer SELEX enrichment z-score [2]: 0.096 | 6-mer SELEX enrichment z-score [3]: 0.024 | 6-mer SELEX enrichment z-score [4]: -0.088 | 6-mer SELEX enrichment z-score [5]: 0.256

TCGAGG
6-mer SELEX enrichment z-score [1]: -0.853 | 6-mer SELEX enrichment z-score [2]: 0.113 | 6-mer SELEX enrichment z-score [3]: -0.019 | 6-mer SELEX enrichment z-score [4]: -0.651 | 6-mer SELEX enrichment z-score [5]: -0.531

GACGGA
6-mer SELEX enrichment z-score [1]: -0.378 | 6-mer SELEX enrichment z-score [2]: -1.07 | 6-mer SELEX enrichment z-score [3]: -0.318 | 6-mer SELEX enrichment z-score [4]: -0.368 | 6-mer SELEX enrichment z-score [5]: -0.352

AGTATA
6-mer SELEX enrichment z-score [1]: 0.561 | 6-mer SELEX enrichment z-score [2]: -0.176 | 6-mer SELEX enrichment z-score [3]: 0.014 | 6-mer SELEX enrichment z-score [4]: 0.479 | 6-mer SELEX enrichment z-score [5]: 1.01

CAGGCA
6-mer SELEX enrichment z-score [1]: 2.04 | 6-mer SELEX enrichment z-score [2]: 1.25 | 6-mer SELEX enrichment z-score [3]: 3.1 | 6-mer SELEX enrichment z-score [4]: 1.35 | 6-mer SELEX enrichment z-score [5]: 1.5

CGATAA
6-mer SELEX enrichment z-score [1]: 0.069 | 6-mer SELEX enrichment z-score [2]: -1.23 | 6-mer SELEX enrichment z-score [3]: -0.698 | 6-mer SELEX enrichment z-score [4]: 0.182 | 6-mer SELEX enrichment z-score [5]: 0.517

GGCACT
6-mer SELEX enrichment z-score [1]: 0.737 | 6-mer SELEX enrichment z-score [2]: 0.581 | 6-mer SELEX enrichment z-score [3]: 1.37 | 6-mer SELEX enrichment z-score [4]: 0.474 | 6-mer SELEX enrichment z-score [5]: 0.699

AACTAA
6-mer SELEX enrichment z-score [1]: 0.692 | 6-mer SELEX enrichment z-score [2]: -0.909 | 6-mer SELEX enrichment z-score [3]: -1.09 | 6-mer SELEX enrichment z-score [4]: 0.679 | 6-mer SELEX enrichment z-score [5]: 1.53

GCGGTG
6-mer SELEX enrichment z-score [1]: 0.084 | 6-mer SELEX enrichment z-score [2]: 0.178 | 6-mer SELEX enrichment z-score [3]: 0.311 | 6-mer SELEX enrichment z-score [4]: 0.187 | 6-mer SELEX enrichment z-score [5]: 0.273

AGAACG
6-mer SELEX enrichment z-score [1]: -0.868 | 6-mer SELEX enrichment z-score [2]: -1.32 | 6-mer SELEX enrichment z-score [3]: -0.892 | 6-mer SELEX enrichment z-score [4]: -0.898 | 6-mer SELEX enrichment z-score [5]: -0.63

GTATAG
6-mer SELEX enrichment z-score [1]: 0.312 | 6-mer SELEX enrichment z-score [2]: -0.006 | 6-mer SELEX enrichment z-score [3]: -0.014 | 6-mer SELEX enrichment z-score [4]: 0.211 | 6-mer SELEX enrichment z-score [5]: 0.516

CGGTAT
6-mer SELEX enrichment z-score [1]: -0.271 | 6-mer SELEX enrichment z-score [2]: 0.259 | 6-mer SELEX enrichment z-score [3]: -0.028 | 6-mer SELEX enrichment z-score [4]: -0.264 | 6-mer SELEX enrichment z-score [5]: -0.115

CACCGT
6-mer SELEX enrichment z-score [1]: -0.201 | 6-mer SELEX enrichment z-score [2]: -0.03 | 6-mer SELEX enrichment z-score [3]: 0.368 | 6-mer SELEX enrichment z-score [4]: -0.24 | 6-mer SELEX enrichment z-score [5]: -0.8

GTGTGT
6-mer SELEX enrichment z-score [1]: 0.037 | 6-mer SELEX enrichment z-score [2]: 0.351 | 6-mer SELEX enrichment z-score [3]: -0.157 | 6-mer SELEX enrichment z-score [4]: 0.001 | 6-mer SELEX enrichment z-score [5]: 0.1

CCTCTA
6-mer SELEX enrichment z-score [1]: -0.071 | 6-mer SELEX enrichment z-score [2]: -0.169 | 6-mer SELEX enrichment z-score [3]: -0.428 | 6-mer SELEX enrichment z-score [4]: -0.123 | 6-mer SELEX enrichment z-score [5]: -0.302

GATGGT
6-mer SELEX enrichment z-score [1]: 0.275 | 6-mer SELEX enrichment z-score [2]: 0.091 | 6-mer SELEX enrichment z-score [3]: 0.119 | 6-mer SELEX enrichment z-score [4]: 0.245 | 6-mer SELEX enrichment z-score [5]: 0.328

CTTAAA
6-mer SELEX enrichment z-score [1]: -0.044 | 6-mer SELEX enrichment z-score [2]: -0.862 | 6-mer SELEX enrichment z-score [3]: -1.07 | 6-mer SELEX enrichment z-score [4]: -0.106 | 6-mer SELEX enrichment z-score [5]: 0.275

TCCAAT
6-mer SELEX enrichment z-score [1]: 0.026 | 6-mer SELEX enrichment z-score [2]: 0.165 | 6-mer SELEX enrichment z-score [3]: -0.239 | 6-mer SELEX enrichment z-score [4]: -0.102 | 6-mer SELEX enrichment z-score [5]: -0.235
